# Test results from PubChem BioAssay AID651820 (National Center for Advancing Translational Sciences (NCATS), 2012).
# Screen size: about 340,000 compounds; about 12,000 (3.5%) were called active. Inconclusive means that the source gave no clear call. Such entries were picked first, then a sample of the others. Calls come from the whole dose curve; as a rule, active = well fitted inhibition curve with a large enough effect; inconclusive = small, poorly fitted or top-dose-only effect, or another doubt; inactive = no such curve, though single readings can be large or run the other way. No potency is given beside an inconclusive call; the fits are too rough.
# Assay: qHTS Assay for Inhibitors of Hepatitis C Virus (HCV)
# Details: Huh7.5.1 HCVcc-Cre (HCVcc is cell-culture hepatitis C virus) infection, luciferase reporter, 44 h; activity change, negative = inhibition: at 41.8 µM (top of the series)
# Outline: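 HCVcc-Cre virus at an moi near 0.5 was added right after compound to cells cultured 4 h from seeding (1,000 cells/well). Luciferase activity was determined 44 h later, 15 min after substrate addition at RT.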
# % is set by controls: 0 for no effect and ±100 for the full control effect; potency is the fitted concentration of half-maximal effect; tags give direction and shape of the fitted curve.
Structure (SMILES),Potency,"activity change, negative = inhibition"
Cc1noc(C)c1C(=O)NC(C)C1CCCO1 (stereo unspecified),"inconclusive [inhibitor, single point]",
COc1ccc(CCN(C)C(=O)COc2ccc(C(=O)c3ccccc3)cc2)cc1OC,"inconclusive [inhibitor, single point]",
Cc1ccc(NS(=O)(=O)c2ccc(NC(=O)CSc3ccc(Cl)cc3)cc2)c(C)c1,"inconclusive [inhibitor, partial curve]",
COc1ccc2nc3sc(C(=O)NCCCN4CCc5ccccc5C4)cc3cc2c1,active: 10 µM,
Cc1cccc(C2=NN(c3ccccc3)[C@@H](C(=O)N3CCOC3=O)[C@@H]2c2ccccc2)c1,"inconclusive [inhibitor, partial curve, poor fit]",
COc1cccc(-c2ccc(NC(=O)C3CCCN(Cc4nccn4C)C3)cc2)c1 (stereo unspecified),"inconclusive [inhibitor, single point]",
Clc1ccc(C2Nc3ccccc3-n3cccc32)cc1 (stereo unspecified),"inconclusive [inhibitor, single point]",
COc1ccccc1NS(=O)(=O)c1cc([N+](=O)[O-])ccc1N/N=C/c1c(C)[nH]c2ccccc12,"inconclusive [inhibitor, single point]",
CCN(CC)S(=O)(=O)c1ccc(S(=O)(=O)Nc2ccc(C(=O)N3CCCC3)cc2)cc1,inactive,
COc1cc(NC(=O)COc2cc(C)cc3oc(=O)c(C)c(C)c23)cc(OC)c1OC,"inconclusive [inhibitor, full curve]",
O=C(CN(c1ccc(F)cc1)S(=O)(=O)c1ccc2c(c1)OCCO2)Nc1ccc2c(c1)OCO2,"inconclusive [inhibitor, single point]",
Cc1cc(C(=O)Nc2cccc(O)c2)co1,inactive,
CC(C)(C)c1ccc(C(=O)Nc2cccc([N+](=O)[O-])c2)cc1,"inconclusive [inhibitor, partial curve]",
CCOC(=O)c1[nH]c2ccccc2c1NC(=S)Nc1ccccc1,,inactive: -17.3% [at 8.37 µM]
Cc1cc(NC(=O)c2cccc([N+](=O)[O-])c2)no1,"inconclusive [inhibitor, single point]",
O=C(NCc1ccc(F)cc1)c1cnccn1,inactive,
COCCSc1ccccc1C(=O)Nc1nnc(C)s1,"inconclusive [inhibitor, single point]",
Cc1sc2ncnc(N3CCC(C(=O)Nc4ccc(OC(F)F)c(Cl)c4)CC3)c2c1C,active: 20 µM,
Cc1cc(N2C(=O)C(O)=C(C(=O)c3ccc(C)o3)C2c2cccs2)no1 (stereo unspecified),"inconclusive [inhibitor, single point]",
O=c1[nH]c2cc3c(cc2cc1CN(Cc1ccco1)C(=S)NCC1CCCO1)OCCO3 (stereo unspecified),"inconclusive [inhibitor, partial curve]",
COc1cc(C(=O)NNC(=O)c2cccn2C)cc(OC)c1OC,"inconclusive [inhibitor, partial curve]",
CC(C)CNS(=O)(=O)c1ccc(OCC(=O)Nc2ccc3c(c2)OCCO3)cc1,"inconclusive [inhibitor, single point]",
NC(N)=N/N=C(\N=Nc1ccccc1)c1ccc(Cl)cc1,"inconclusive [inhibitor, single point]",
NS(=O)(=O)c1ccc(N/N=C/c2ccncc2)cc1,inactive,

Structure (SMILES),Potency,"activity change, negative = inhibition"
Cc1ccc(OCCC(=O)OCC(=O)NC2CCCC(C)C2C)cc1 (stereo unspecified),inactive,
CC1CCC(NC(=O)c2cc3ccccc3cc2O)CC1 (stereo unspecified),"inconclusive [inhibitor, single point]",
CC(C)(C)n1nnnc1C(c1cccnc1)N1CCN(c2ccccc2)CC1 (stereo unspecified),inactive,
CCOc1ccc(S(=O)(=O)N2CCCCC2)c(C)c1C,inactive,
CCn1c(=O)cc(OCC(=O)Nc2ccccc2N2CCN(C)CC2)c2ccccc21,inactive,
CN1CCN(CC(O)Cn2c3ccccc3c3ccccc32)CC1 (stereo unspecified),"inconclusive [inhibitor, single point]",
NC(C(=O)O)C1ON=C(Cl)C1O (stereo unspecified),"inconclusive [inhibitor, partial curve]",
COc1ccc(CNS(=O)(=O)NCc2ccccc2)cc1OC,"inconclusive [inhibitor, partial curve, poor fit]",
O=C(NCC1CCCO1)c1cc(C(=O)c2ccc(Cl)cc2Cl)c[nH]1 (stereo unspecified),"inconclusive [inhibitor, single point]",
CCc1noc(C)c1C(=O)OCC(=O)N1CCc2ccccc21,inactive,
CC1CN(C(=O)C(C)N2CCN(c3ccccc3Cl)CC2)CC(C)O1 (stereo unspecified),"inconclusive [inhibitor, partial curve]",
COc1cc(N2CCCC2)c(OC)cc1C=O,active: 11.2 µM,
COc1cc(NC(=O)[C@@H]2CCCN(S(=O)(=O)c3cccc4cccnc34)C2)cc(OC)c1OC,"inconclusive [inhibitor, partial curve]",
c1ccc2sc(-c3ccc4c(c3)OCO4)nc2c1,"inconclusive [inhibitor, single point]",
CCOC(=O)c1c(NC(=O)CSc2nnc(-c3c[nH]c4ccccc34)n2CCOC)sc2c1CCCCC2,active: 6.31 µM,
COc1ccc(CNC(=O)CCn2ccc3cc(S(=O)(=O)N4CCCC4)ccc32)cc1,"inconclusive [inhibitor, single point]",
CC(=O)Nc1ccc(S(=O)(=O)N(C)CC(=O)NC2CCCCCCC2)cc1,inactive,
Cc1cc(NC(=O)C2CC(c3cccc(Br)c3)=NO2)no1 (stereo unspecified),"inconclusive [inhibitor, single point]",
COc1ccc(OC)c(NC(=O)CSc2nnc(Cn3c(=O)sc4ccccc43)n2C)c1,"inconclusive [inhibitor, partial curve]",
Clc1ccc(C2=Nn3c(Cn4nnc5ccccc54)nnc3SC2)cc1,inactive,
CCN(CC)S(=O)(=O)c1cccc(NC(=O)COc2ccc(C#N)cc2OC)c1,"inconclusive [inhibitor, partial curve]",
O=C(Nc1cc(Sc2nc3ccccc3s2)cc([N+](=O)[O-])c1)c1ccccc1F,active: 10 µM,
O=C(NCCS(=O)(=O)NCCc1ccccc1)c1ccccc1,inactive,
O=C(COc1ccc(Cl)cc1Cl)N/N=C1\CCCc2ccccc21,"inconclusive [inhibitor, single point]",

Structure (SMILES),Potency,"activity change, negative = inhibition"
CC(=O)N1c2ccc(S(=O)(=O)N3CCC(C(=O)N4CCN(c5cc(Cl)ccc5C)CC4)CC3)cc2CC1C (stereo unspecified),"inconclusive [inhibitor, single point]",
CCC(=O)NC(=S)NNC(=O)c1ccc(OC)cc1,"inconclusive [inhibitor, partial curve]",
CCOC(=O)C1=C(CNC2CCCCC2)NC(=O)NC1c1cc(C)ccc1C (stereo unspecified),"inconclusive [inhibitor, single point]",
COc1ccc(NC(=O)CN(C)C(=O)c2cccc(S(=O)(=O)N3CCN(c4ccc(F)cc4)CC3)c2)cc1,active: 12.6 µM,
CCOc1ccc(NC(=S)Nc2ccc(OC(F)(F)F)cc2)cc1,inactive,
O=C(/C=C/c1cccc(Br)c1)c1ccc2c(c1)OCO2,inactive,
CC(=Nc1ccc(C)c(C)c1)C1=C(O)CSC1=O,inactive,
CCN(CC)CCCNC(=O)c1cc2c(-c3ccc(Cl)cc3)nn(C)c2s1,active: 11.2 µM,
Cc1ccc(S(=O)(=O)c2cc3c(=O)n4ccccc4nc3n(Cc3ccco3)c2=N)cc1,"inconclusive [inhibitor, single point]",
O=C(COc1ccccc1Br)NCCc1nc2ccccc2[nH]1,inactive,
O=C(CCCn1c(=O)c2sccc2n(Cc2ccc(F)cc2)c1=O)NCc1ccco1,"inconclusive [inhibitor, single point]",
Cn1c(Sc2ccc(C(=O)O)cc2[N+](=O)[O-])nnc1-c1ccccc1,"inconclusive [inhibitor, single point]",
COc1ccc(NC(=O)CCCN(C)S(=O)(=O)c2ccc(C)cc2)cc1,"inconclusive [inhibitor, single point]",
CCOC(=O)c1c(C)[nH]c(C(=O)OC/C(O)=C(\C#N)c2nc3ccccc3[nH]2)c1C,"inconclusive [inhibitor, single point]",
CN(C)CCNC(=O)/C(=C/c1ccc(-c2cccc(Cl)c2)o1)NC(=O)c1ccccc1,active: 11.2 µM,
COc1ccc(NC(=O)COC(=O)CCOc2ccccc2C)cc1Cl,inactive,
CCn1cc(/C=C(\NC(=O)c2ccccc2F)C(=O)N2CCCC2)c2ccccc21,"inconclusive [inhibitor, single point]",
COc1ccccc1C1NC=C([N+](=O)[O-])C=C1[N+](=O)[O-] (stereo unspecified),"inconclusive [inhibitor, single point]",
Cc1cccc(OCC(=O)Nc2ccc3c(c2)nc(CCN2CCC(C)CC2)n3C)c1,"inconclusive [inhibitor, partial curve]",
CNC(=O)N(O)C1N(/N=C/c2ccccc2OC)C(=S)SC1(C)C (stereo unspecified),inactive,
Cn1nnc(NCc2cc(Br)ccc2OCc2cccs2)n1,"inconclusive [inhibitor, single point]",
CN1CCN(c2nc(-c3ccccc3)nc(-c3ccccc3)c2C#N)CC1,"inconclusive [inhibitor, single point]",
COc1cc(C(=O)OCC(=O)Nc2sccc2C(N)=O)cc(OC)c1OC,"inconclusive [inhibitor, partial curve]",
